Measured values taken from publication PMC5290273 (Nature Communications, 2017).
Residue numbers refer to the chain shown, from its start. These are yes or no findings as the source states them, for the method shown. Binding seen in cells or lysates may run through a third protein. Some entries that bind do so weakly or less than the wild type. Tags and fused reporters may be left off the sequences shown.

Key:
Test in all cases: co-IP
[1] = biological target: T1, FLAG-AFF4 Δ970–1,163 E322H (human) (UniProt Q9UHB7)
T1 sequence: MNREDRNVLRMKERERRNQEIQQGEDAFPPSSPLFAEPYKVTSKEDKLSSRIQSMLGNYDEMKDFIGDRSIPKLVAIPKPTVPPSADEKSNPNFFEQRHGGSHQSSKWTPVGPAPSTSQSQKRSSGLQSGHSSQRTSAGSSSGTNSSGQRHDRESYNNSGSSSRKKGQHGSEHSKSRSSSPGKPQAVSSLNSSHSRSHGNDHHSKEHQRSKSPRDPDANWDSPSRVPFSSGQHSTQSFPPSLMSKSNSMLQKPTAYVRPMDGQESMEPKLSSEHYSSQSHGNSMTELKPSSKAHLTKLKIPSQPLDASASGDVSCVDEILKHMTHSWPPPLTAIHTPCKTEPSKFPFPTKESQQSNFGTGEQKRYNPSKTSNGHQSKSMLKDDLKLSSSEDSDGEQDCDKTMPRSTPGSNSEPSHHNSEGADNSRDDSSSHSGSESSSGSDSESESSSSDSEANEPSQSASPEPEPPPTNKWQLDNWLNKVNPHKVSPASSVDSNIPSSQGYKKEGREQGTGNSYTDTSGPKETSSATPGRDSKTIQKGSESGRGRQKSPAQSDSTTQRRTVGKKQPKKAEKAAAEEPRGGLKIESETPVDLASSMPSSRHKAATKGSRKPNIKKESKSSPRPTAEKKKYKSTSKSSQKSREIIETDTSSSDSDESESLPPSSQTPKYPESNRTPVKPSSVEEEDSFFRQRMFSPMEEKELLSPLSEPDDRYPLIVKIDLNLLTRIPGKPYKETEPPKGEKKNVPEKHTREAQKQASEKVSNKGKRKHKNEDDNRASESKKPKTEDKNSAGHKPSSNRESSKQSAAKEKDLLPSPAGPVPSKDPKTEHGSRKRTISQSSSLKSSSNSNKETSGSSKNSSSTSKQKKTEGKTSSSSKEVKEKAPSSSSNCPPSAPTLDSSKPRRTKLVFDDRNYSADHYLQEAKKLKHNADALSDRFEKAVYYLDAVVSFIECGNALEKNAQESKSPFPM

[2] = biological target: T2, FLAG-AFF4 Δ970–1,163 F347D (human) (UniProt Q9UHB7)
T2 sequence: T1 sequence with H322E, F347D

[3] = biological target: T3, FLAG-AFF4 with double deletion of residues 318–337 and 970–1,163 (human) (UniProt Q9UHB7)
T3 sequence: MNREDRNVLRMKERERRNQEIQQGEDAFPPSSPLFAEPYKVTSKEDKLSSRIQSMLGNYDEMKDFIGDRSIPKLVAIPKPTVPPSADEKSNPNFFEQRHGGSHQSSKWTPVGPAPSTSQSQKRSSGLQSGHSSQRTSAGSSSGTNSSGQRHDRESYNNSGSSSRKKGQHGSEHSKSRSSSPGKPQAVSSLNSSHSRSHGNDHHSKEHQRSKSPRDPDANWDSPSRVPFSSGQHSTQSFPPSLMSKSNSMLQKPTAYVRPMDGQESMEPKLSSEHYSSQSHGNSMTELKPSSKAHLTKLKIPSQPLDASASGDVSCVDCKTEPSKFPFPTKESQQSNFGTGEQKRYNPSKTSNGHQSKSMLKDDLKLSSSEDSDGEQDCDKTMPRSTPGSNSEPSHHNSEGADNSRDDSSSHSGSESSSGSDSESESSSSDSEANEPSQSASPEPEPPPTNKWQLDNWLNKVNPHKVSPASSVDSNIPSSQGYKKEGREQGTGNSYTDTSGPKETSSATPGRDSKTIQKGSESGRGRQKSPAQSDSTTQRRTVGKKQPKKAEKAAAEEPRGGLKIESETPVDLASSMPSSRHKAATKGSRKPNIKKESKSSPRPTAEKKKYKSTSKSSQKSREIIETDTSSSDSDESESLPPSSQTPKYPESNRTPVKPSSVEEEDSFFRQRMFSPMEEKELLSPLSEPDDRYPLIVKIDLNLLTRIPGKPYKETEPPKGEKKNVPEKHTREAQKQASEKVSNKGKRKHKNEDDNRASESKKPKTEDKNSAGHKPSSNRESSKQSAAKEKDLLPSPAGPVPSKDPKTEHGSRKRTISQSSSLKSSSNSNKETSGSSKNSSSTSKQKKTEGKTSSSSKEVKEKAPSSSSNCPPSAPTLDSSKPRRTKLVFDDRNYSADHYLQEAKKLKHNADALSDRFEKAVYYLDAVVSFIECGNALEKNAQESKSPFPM

binding [1]: no binding
binding [2]: binds
binding [3]: no binding
B1: ELL1, endogenous (protein, UniProt P55199 1-621)
chain: MAALKEDRSYGLSCGRVSDGSKVSVFHVKLTDSALRAFESYRARQDSVSLRPSIRFQGSQGHISIPQPDCPAEARTFSFYLSNIGRDNPQGSFDCIQQYVSSHGEVHLDCLGSIQDKITVCATDDSYQKARQSMAQAEEETRSRSAIVIKAGGRYLGKKVQFRKPAPGATDAVPSRKRATPINLASAIRKSGASAVSGGSGVSQRPFRDRVLHLLALRPYRKAELLLRLQKDGLTQADKDALDGLLQQVANMSAKDGTCTLQDCMYKDVQKDWPGYSEGDQQLLKRVLVRKLCQPQSTGSLLGDPAASSPPGERGRSASPPQKRLQPPDFIDPLANKKPRISHFTQRAQPAVNGKLGVPNGREALLPTPGPPASTDTLSSSTHLPPRLEPPRAHDPLADVSNDLGHSGRDCEHGEAAAPAPTVRLGLPLLTDCAQPSRPHGSPSRSKPKKKSKKHKDKERAAEDKPRAQLPDCAPATHATPGAPADTPGLNGTCSVSSVPTSTSETPDYLLKYAAISSSEQRQSYKNDFNAEYSEYRDLHARIERITRRFTQLDAQLRQLSQGSEEYETTRGQILQEYRKIKKTNTNYSQEKHRCEYLHSKLAHIKRLIAEYDQRQLQAWP
